Our source for the binding signal values is paper PMC9911399, “Two distinct binding modes provide the RNA-binding protein RbFox with extraordinary sequence specificity”.

Residue numbers refer to the chain shown, from its start. The list shows a part of the results.

The labels stand for the following.
T1: RBFOX1 RRM (Homo sapiens, UniProt Q9NWB1 109-208)
T1 sequence: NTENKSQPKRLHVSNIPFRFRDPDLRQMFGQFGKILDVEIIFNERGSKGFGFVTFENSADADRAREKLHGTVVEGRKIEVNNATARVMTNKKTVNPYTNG

B1: GACCAUA (DNA:RNA)
RNA: GGGAGACCGGAAUUCAGAUUGUCCGACCAUAUUAAAUCCCGUCGUAGCCACCA
DNA 1: CAATCTGAATTCCGGTCTCCC
DNA 2: TGGTGGCTACGACGGGATT
B2: GCGGUUU (DNA:RNA)
RNA: B1 RNA with A26C, C27G, C28G, A29U, A31U
DNA 1: CAATCTGAATTCCGGTCTCCC
DNA 2: TGGTGGCTACGACGGGATT
B3: AAACACG (DNA:RNA)
RNA: B1 RNA with G25A, C27A, U30C, A31G
DNA 1: CAATCTGAATTCCGGTCTCCC
DNA 2: TGGTGGCTACGACGGGATT
B4: AACUGUA (DNA:RNA)
RNA: B1 RNA with G25A, C28U, A29G
DNA 1: CAATCTGAATTCCGGTCTCCC
DNA 2: TGGTGGCTACGACGGGATT
B5: CUCCUGG (DNA:RNA)
RNA: B1 RNA with G25C, A26U, A29U, U30G, A31G
DNA 1: CAATCTGAATTCCGGTCTCCC
DNA 2: TGGTGGCTACGACGGGATT
B6: CACAGUG (DNA:RNA)
RNA: B1 RNA with G25C, C28A, A29G, A31G
DNA 1: CAATCTGAATTCCGGTCTCCC
DNA 2: TGGTGGCTACGACGGGATT
B7: GAUUGUG (DNA:RNA)
RNA: B1 RNA with C27U, C28U, A29G, A31G
DNA 1: CAATCTGAATTCCGGTCTCCC
DNA 2: TGGTGGCTACGACGGGATT
B8: UCAAGGA (DNA:RNA)
RNA: B1 RNA with G25U, A26C, C27A, C28A, A29G, U30G
DNA 1: CAATCTGAATTCCGGTCTCCC
DNA 2: TGGTGGCTACGACGGGATT
B9: CUUAAUG (DNA:RNA)
RNA: B1 RNA with G25C, A26U, C27U, C28A, A31G
DNA 1: CAATCTGAATTCCGGTCTCCC
DNA 2: TGGTGGCTACGACGGGATT
B10: CGCUCUC (DNA:RNA)
RNA: B1 RNA with G25C, A26G, C28U, A29C, A31C
DNA 1: CAATCTGAATTCCGGTCTCCC
DNA 2: TGGTGGCTACGACGGGATT
B11: UCGUUGU (DNA:RNA)
RNA: GGGAGACCGGAAUUCAGAUUGUCCUCGUUGUUUAAAUCCCGUCGUAGCCACCA
DNA 1: CAATCTGAATTCCGGTCTCCC
DNA 2: TGGTGGCTACGACGGGATT
B12: CCGUAUA (DNA:RNA)
RNA: B1 RNA with G25C, A26C, C27G, C28U
DNA 1: CAATCTGAATTCCGGTCTCCC
DNA 2: TGGTGGCTACGACGGGATT
B13: CGAUCUG (DNA:RNA)
RNA: B1 RNA with G25C, A26G, C27A, C28U, A29C, A31G
DNA 1: CAATCTGAATTCCGGTCTCCC
DNA 2: TGGTGGCTACGACGGGATT
B14: GCGGGUC (DNA:RNA)
RNA: B1 RNA with A26C, C27G, C28G, A29G, A31C
DNA 1: CAATCTGAATTCCGGTCTCCC
DNA 2: TGGTGGCTACGACGGGATT
B15: UACAAGC (DNA:RNA)
RNA: B1 RNA with G25U, C28A, U30G, A31C
DNA 1: CAATCTGAATTCCGGTCTCCC
DNA 2: TGGTGGCTACGACGGGATT
B16: CCAGGCA (DNA:RNA)
RNA: B1 RNA with G25C, A26C, C27A, C28G, A29G, U30C
DNA 1: CAATCTGAATTCCGGTCTCCC
DNA 2: TGGTGGCTACGACGGGATT
B17: GCGCCAU (DNA:RNA)
RNA: B11 RNA with U25G, U28C, U29C, G30A
DNA 1: CAATCTGAATTCCGGTCTCCC
DNA 2: TGGTGGCTACGACGGGATT
B18: UCUCAAU (DNA:RNA)
RNA: B11 RNA with G27U, U28C, U29A, G30A
DNA 1: CAATCTGAATTCCGGTCTCCC
DNA 2: TGGTGGCTACGACGGGATT
B19: CUGCUAG (DNA:RNA)
RNA: B11 RNA with U25C, C26U, U28C, G30A, U31G
DNA 1: CAATCTGAATTCCGGTCTCCC
DNA 2: TGGTGGCTACGACGGGATT
B20: AGGUGGU (DNA:RNA)
RNA: B11 RNA with U25A, C26G, U29G
DNA 1: CAATCTGAATTCCGGTCTCCC
DNA 2: TGGTGGCTACGACGGGATT

The target in the test is T1, RBFOX1 RRM. Kind of test: EMSA; HiTS-Eq, 1 nM pool, 10 min; buffer printed only for the single-RNA assays: 10 mM Tris pH 7.5, 150 mM NaCl, 3.4 mM EDTA, 0.001% NP-40, 30 C. To be noted: tags: His6 N-terminal (pET28a); label: 5' 32P. A digest of the protocol:
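Purified wild-type or mutant RbFox RRM at increasing concentrations was equilibrated with 1 nM of 5′-radiolabelled RNA carrying 7 randomized nucleotides for 10 min in 50 µL. Unbound RNA was separated by 8% native PAGE and sequenced. Relative association constants came from read-count changes of each RNA species compared with the control reaction, normalised to the cognate motif.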
Regarding B1, the binding signal is 0.000784 KA relative to UGCAUGU.

As for B2, the binding signal was 0.0229 KA relative to UGCAUGU. As to B3, the binding signal is 0.00204 KA relative to UGCAUGU. As for B4, the figure is 0.0028 KA relative to UGCAUGU. Regarding B5, the binding signal is 0.0165 KA relative to UGCAUGU. On to B6, for which the binding signal was 0.00627 KA relative to UGCAUGU.

For B7, the binding signal was 0.0275 KA relative to UGCAUGU. B8: the binding signal is 0.00364 KA relative to UGCAUGU. As to B9, the binding signal was 0.00937 KA relative to UGCAUGU.

For the molecule B10, the binding signal was 0.0105 KA relative to UGCAUGU. As for B11, the figure is 0.025 KA relative to UGCAUGU; as for B12, 0.00237 KA relative to UGCAUGU. With B13, the binding signal was 0.0167 KA relative to UGCAUGU. As for B14, the binding signal is 0.0163 KA relative to UGCAUGU.

In the case of B15, the binding signal was 0.00451 KA relative to UGCAUGU.

On to B16, for which the binding signal was 0.0107 KA relative to UGCAUGU. As for B17, the figure is 0.00645 KA relative to UGCAUGU; as for B18, 0.0038 KA relative to UGCAUGU. In the case of B19, the binding signal is 0.0317 KA relative to UGCAUGU. Take B20: the binding signal is 0.0164 KA relative to UGCAUGU.
